Measured values from the supplement of paper PMC10126150.
Values marked as one replicate rest on one cluster of the flow cell; about a third of the high ones do not repeat.
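Note: ATP exposure 15 min at 22 °C before imaging.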

These sequences were tested on ATP (assay: switch fluorescence ratio, 500 uM ATP over buffer (Cy3 cluster intensity, sum of 5 cycles each) (fold (ratio)); higher = stronger signal-on switching upon ATP binding; sequences stand for … in TCGTCGGCAGCGTCAGATGTGTATAAGAGACAGTTTTTTTTTTTTTTTTTTTTTTTTT…TC). Details: aptamer strand: ATP DNA aptamer (quencher-CACCTGGGGGAGTATTGCGGAGGAAGG + anchor), 100 nM annealed; ATP concentration: 500 uM; one replicate.
Procedure, shortened: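 Cy3-labelled switching-strand clusters on a modified Illumina MiSeq flow-cell were annealed to 100 nM quencher-labelled ATP aptamer, imaged in selection buffer, then imaged after 15 min with 500 uM ATP at 22 °C. Five buffer/ATP cycles ran, with NaOH stripping and re-annealing between them. The fluorescence ratio is summed target-cycle over summed buffer-cycle Cy3 intensity per cluster, averaged per switch-domain sequence. Clusters outside 100-1000 RFU were excluded.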
AGCATTGAGT showed a switch fluorescence ratio of 1.01. AGCCAATAAG gave a switch fluorescence ratio of 1.08. With AGCCATCCG the switch fluorescence ratio was 1.01. For AGCCCAGCGG, the switch fluorescence ratio was 1.09. With AGCCCCTAGA the switch fluorescence ratio was 0.984. Work on AGCCCGTATT yielded a switch fluorescence ratio of 1.02. Sequence AGCCGAAGTC has a switch fluorescence ratio of 0.972. Sequence AGCCGACCTG has a switch fluorescence ratio of 0.97. With AGCCGCCGCC the switch fluorescence ratio was 1.51. With AGCCGCGC the switch fluorescence ratio was 1.02. For AGCCGGGGGG, the switch fluorescence ratio was 1.03. In the case of AGCCGGTTAG, the switch fluorescence ratio is reported as 1.01. In the case of AGCCTAAAGG, the switch fluorescence ratio is reported as 0.936. For AGCCTACAGG, the switch fluorescence ratio was 1.05. Work on AGCCTAGATA yielded a switch fluorescence ratio of 1.01. For AGCCTCCTGC, the switch fluorescence ratio was 1.02. Work on AGCCTCGGGA yielded a switch fluorescence ratio of 1.04. In the case of AGCCTCTTAC, the switch fluorescence ratio is reported as 1.05. Sequence AGCCTTATGT has a switch fluorescence ratio of 0.996. AGCCTTATTT gave a switch fluorescence ratio of 0.999. With AGCCTTGGTT the switch fluorescence ratio was 0.989. Work on AGCGAATGTA yielded a switch fluorescence ratio of 1.05. Sequence AGCGAATTGA has a switch fluorescence ratio of 1.03. Sequence AGCGAATTT has a switch fluorescence ratio of 1. In the case of AGCGACCGTC, the switch fluorescence ratio is reported as 1.01. In the case of AGCGACGAGA, the switch fluorescence ratio is reported as 1.01. With AGCGACTCCT the switch fluorescence ratio was 1.49. In the case of AGCGAGGCCC, the switch fluorescence ratio is reported as 0.985. With AGCGATAGAG the switch fluorescence ratio was 1.05. In the case of AGCGATATAG, the switch fluorescence ratio is reported as 1.04. In the case of AGCGCCTGGC, the switch fluorescence ratio is reported as 1.05. AGCGGAAAAA showed a switch fluorescence ratio of 0.899. AGCGGAGGTC was tested, and the switch fluorescence ratio was 0.958. Work on AGCGGAGGTG yielded a switch fluorescence ratio of 0.866. Sequence AGCGGCTGCG has a switch fluorescence ratio of 1.04. In the case of AGCGGGACCT, the switch fluorescence ratio is reported as 1.15. AGCGGGCGGA gave a switch fluorescence ratio of 1.01. Work on AGCGGGG yielded a switch fluorescence ratio of 0.976. For AGCGGGTCGT, the switch fluorescence ratio was 1.06. Work on AGCGGTACTG yielded a switch fluorescence ratio of 1.14. Sequence AGCGGTGGCA has a switch fluorescence ratio of 0.97. Work on AGCGGTTGA yielded a switch fluorescence ratio of 1.05. Work on AGCGTAGTAG yielded a switch fluorescence ratio of 1.02. For AGCGTCGAGG, the switch fluorescence ratio was 1.01. Work on AGCGTCTCCC yielded a switch fluorescence ratio of 2.06. Sequence AGCGTCTCGA has a switch fluorescence ratio of 1.01. Work on AGCGTCTTGG yielded a switch fluorescence ratio of 0.975. Sequence AGCGTGAGTT has a switch fluorescence ratio of 0.981. For AGCGTGTGGT, the switch fluorescence ratio was 0.995. Sequence AGCTAATGT has a switch fluorescence ratio of 0.99. With AGCTAATTAT the switch fluorescence ratio was 1. Work on AGCTACTCAC yielded a switch fluorescence ratio of 2.22. AGCTAGAAAT was tested, and the switch fluorescence ratio was 0.995. AGCTAGATTA was tested, and the switch fluorescence ratio was 1.01. In the case of AGCTAGTGCG, the switch fluorescence ratio is reported as 1.03. In the case of AGCTAGTGTT, the switch fluorescence ratio is reported as 0.995. AGCTATCCTG showed a switch fluorescence ratio of 1.01. AGCTCAAGTA was tested, and the switch fluorescence ratio was 0.984. For AGCTCGCTGG, the switch fluorescence ratio was 1.02. With AGCTCTACAG the switch fluorescence ratio was 1.02. Work on AGCTCTCCG yielded a switch fluorescence ratio of 1.29. With AGCTCTGCTC the switch fluorescence ratio was 1. AGCTGAAGGG showed a switch fluorescence ratio of 1.01. AGCTGAGACC was tested, and the switch fluorescence ratio was 1. AGCTGCATCA gave a switch fluorescence ratio of 1.1. Work on AGCTGCTGTT yielded a switch fluorescence ratio of 1.03. AGCTGGATAT showed a switch fluorescence ratio of 0.953. AGCTGGCAA showed a switch fluorescence ratio of 1.03. AGCTGGCAAA gave a switch fluorescence ratio of 0.993. In the case of AGCTGGGTTG, the switch fluorescence ratio is reported as 0.966. AGCTGTATCA gave a switch fluorescence ratio of 0.994. Work on AGCTGTCAGT yielded a switch fluorescence ratio of 0.997. Sequence AGCTGTGGGG has a switch fluorescence ratio of 0.991. AGCTTAAAGG showed a switch fluorescence ratio of 0.975. Sequence AGCTTCTGTA has a switch fluorescence ratio of 1.04. In the case of AGCTTGCCTT, the switch fluorescence ratio is reported as 1.01. AGCTTGGTTC gave a switch fluorescence ratio of 1.03. Sequence AGCTTTCGGC has a switch fluorescence ratio of 1.03. AGCTTTGGCG was tested, and the switch fluorescence ratio was 0.966. AGCTTTTAG gave a switch fluorescence ratio of 0.962. Work on AGGAAAATCC yielded a switch fluorescence ratio of 0.996. AGGAAAATTC was tested, and the switch fluorescence ratio was 1. With AGGAAACATC the switch fluorescence ratio was 0.99. For AGGAAAGAGA, the switch fluorescence ratio was 1.02. With AGGAACGCAT the switch fluorescence ratio was 1.23. With AGGAAGGGCG the switch fluorescence ratio was 1.12. Work on AGGAAGGTGG yielded a switch fluorescence ratio of 1.01. AGGAAGTCGT gave a switch fluorescence ratio of 0.972. With AGGAAGTGCA the switch fluorescence ratio was 1.01. Work on AGGAAGTGCG yielded a switch fluorescence ratio of 0.967. Work on AGGAATACGT yielded a switch fluorescence ratio of 1.12. In the case of AGGAATAGTC, the switch fluorescence ratio is reported as 1.1. AGGAATTAA showed a switch fluorescence ratio of 0.975. For AGGACAAGCG, the switch fluorescence ratio was 1.17. In the case of AGGACAGAG, the switch fluorescence ratio is reported as 0.95. AGGACCGGC showed a switch fluorescence ratio of 0.883. Sequence AGGACCTTTT has a switch fluorescence ratio of 1.01. In the case of AGGACGAGAA, the switch fluorescence ratio is reported as 1.02. AGGACGCCCA gave a switch fluorescence ratio of 1.06. In the case of AGGACGCT, the switch fluorescence ratio is reported as 1.05. AGGACGTAAC gave a switch fluorescence ratio of 1.37. Work on AGGAGACTCT yielded a switch fluorescence ratio of 0.986. For AGGAGATGCT, the switch fluorescence ratio was 1.01. With AGGAGGACTC the switch fluorescence ratio was 0.968. AGGAGGCCGA was tested, and the switch fluorescence ratio was 1.03. Sequence AGGAGTTGTA has a switch fluorescence ratio of 0.969. With AGGAGTTTA the switch fluorescence ratio was 0.984. For AGGATAGATT, the switch fluorescence ratio was 0.989. With AGGATAGCAG the switch fluorescence ratio was 0.991. In the case of AGGATATAGA, the switch fluorescence ratio is reported as 0.964. In the case of AGGATCATCT, the switch fluorescence ratio is reported as 0.968. With AGGATCCCGA the switch fluorescence ratio was 1.06. With AGGATGAGAG the switch fluorescence ratio was 0.993. AGGATGGGTT gave a switch fluorescence ratio of 0.998. Sequence AGGATGGTGT has a switch fluorescence ratio of 0.993. In the case of AGGATTAGCC, the switch fluorescence ratio is reported as 0.998. For AGGATTCATC, the switch fluorescence ratio was 0.968. In the case of AGGATTGGTA, the switch fluorescence ratio is reported as 1.01. Work on AGGCAAAATT yielded a switch fluorescence ratio of 1.73. With AGGCAACTTG the switch fluorescence ratio was 1.03. Work on AGGCAAGGAG yielded a switch fluorescence ratio of 0.957. AGGCACATCA gave a switch fluorescence ratio of 1.02. In the case of AGGCACATGA, the switch fluorescence ratio is reported as 1.06. AGGCACTGAA gave a switch fluorescence ratio of 0.995. In the case of AGGCATTACT, the switch fluorescence ratio is reported as 1.76. AGGCCAACTG was tested, and the switch fluorescence ratio was 1.15. Sequence AGGCCCAAGA has a switch fluorescence ratio of 1.04. In the case of AGGCCCAAGG, the switch fluorescence ratio is reported as 1.09. AGGCCCCGA was tested, and the switch fluorescence ratio was 0.981. For AGGCCGCAAT, the switch fluorescence ratio was 5.78. In the case of AGGCGATGAG, the switch fluorescence ratio is reported as 1.01. Sequence AGGCGCCACA has a switch fluorescence ratio of 0.989. AGGCGCGATA gave a switch fluorescence ratio of 1.18. With AGGCGGCAGG the switch fluorescence ratio was 1.02. Work on AGGCGGCTAT yielded a switch fluorescence ratio of 0.994. For AGGCGGGATG, the switch fluorescence ratio was 0.96. With AGGCTACGT the switch fluorescence ratio was 1.01. In the case of AGGCTGCTAG, the switch fluorescence ratio is reported as 0.994. AGGCTTTATC gave a switch fluorescence ratio of 0.97. With AGGGAACAGC the switch fluorescence ratio was 0.969. For AGGGAGCCAC, the switch fluorescence ratio was 1.02. AGGGAGCGTC gave a switch fluorescence ratio of 0.974. AGGGAGCTCT showed a switch fluorescence ratio of 1.01. For AGGGAGGTCT, the switch fluorescence ratio was 0.979. Sequence AGGGATTCTC has a switch fluorescence ratio of 0.984. AGGGCAACGG showed a switch fluorescence ratio of 1.05. For AGGGCCATAA, the switch fluorescence ratio was 0.979. With AGGGCCCCCT the switch fluorescence ratio was 1.39. AGGGCGGCGG showed a switch fluorescence ratio of 0.985. AGGGCGTACT was tested, and the switch fluorescence ratio was 1.03. In the case of AGGGCGTGG, the switch fluorescence ratio is reported as 1.02. AGGGCGTTCG gave a switch fluorescence ratio of 0.971. For AGGGGAAAA, the switch fluorescence ratio was 0.943. In the case of AGGGGAAGCG, the switch fluorescence ratio is reported as 0.973. With AGGGGATAAA the switch fluorescence ratio was 0.955. Sequence AGGGGATCGT has a switch fluorescence ratio of 0.954. Work on AGGGGCAAGT yielded a switch fluorescence ratio of 0.96. For AGGGGCACGC, the switch fluorescence ratio was 0.979. Sequence AGGGGCCGTG has a switch fluorescence ratio of 0.965. For AGGGGCGTCC, the switch fluorescence ratio was 0.959. Work on AGGGGGCCCA yielded a switch fluorescence ratio of 1.02. AGGGTACTAA gave a switch fluorescence ratio of 1.05. Work on AGGGTAGAG yielded a switch fluorescence ratio of 1.01. In the case of AGGGTAGGCA, the switch fluorescence ratio is reported as 1.01. AGGGTATGG was tested, and the switch fluorescence ratio was 1.02. AGGGTATTCC was tested, and the switch fluorescence ratio was 0.987. AGGGTCATGG was tested, and the switch fluorescence ratio was 1.03. AGGGTCCCTA was tested, and the switch fluorescence ratio was 1.3. AGGGTGAAGG was tested, and the switch fluorescence ratio was 1. With AGGGTGAGCA the switch fluorescence ratio was 1.01. With AGGGTGGATT the switch fluorescence ratio was 0.967. AGGGTGGGAT showed a switch fluorescence ratio of 0.996. Sequence AGGGTGTCAT has a switch fluorescence ratio of 1. AGGGTTAAAC showed a switch fluorescence ratio of 0.994. For AGGGTTGGC, the switch fluorescence ratio was 1.05. Work on AGGGTTTCAT yielded a switch fluorescence ratio of 1.09. AGGGTTTTA gave a switch fluorescence ratio of 1. For AGGGTTTTTA, the switch fluorescence ratio was 0.983. AGGTAAGCGT was tested, and the switch fluorescence ratio was 1.05. AGGTACGGTA showed a switch fluorescence ratio of 1.04. AGGTAGAGGC was tested, and the switch fluorescence ratio was 1.02. AGGTAGTATG showed a switch fluorescence ratio of 1.02. AGGTAGTGGT showed a switch fluorescence ratio of 0.996. Sequence AGGTATGAGC has a switch fluorescence ratio of 0.971. Sequence AGGTATGCAA has a switch fluorescence ratio of 1.09. AGGTATTAAG gave a switch fluorescence ratio of 1.05. Work on AGGTCACATG yielded a switch fluorescence ratio of 1.03. For AGGTCATAG, the switch fluorescence ratio was 1.02. AGGTCATGCG gave a switch fluorescence ratio of 1. For AGGTCATTAT, the switch fluorescence ratio was 1.01. In the case of AGGTCCATCG, the switch fluorescence ratio is reported as 0.991. AGGTCCTAG showed a switch fluorescence ratio of 1.01. AGGTCCTG showed a switch fluorescence ratio of 1.03. In the case of AGGTCGCTGT, the switch fluorescence ratio is reported as 0.937. Work on AGGTCTGGGA yielded a switch fluorescence ratio of 1. AGGTCTGGGG gave a switch fluorescence ratio of 1.01. In the case of AGGTGAGCAG, the switch fluorescence ratio is reported as 1.02. AGGTGAGTCT gave a switch fluorescence ratio of 1.08. Sequence AGGTGAGTTG has a switch fluorescence ratio of 1.02. For AGGTGCCATA, the switch fluorescence ratio was 0.986. AGGTGGCTTC gave a switch fluorescence ratio of 0.953.
